Data as given in the GPR68 mutational scans of Howard et al. (2025).
Scores with a large standard error are left out. The source holds two more conditions with little spread; they are left out. Read del as a deletion of the residues named and ins as an insertion between two positions. For some assays here: The data file names ogerin without a concentration.

B1: GPR68, Q15743 (parent)
chain: MGNITADNSSMSCTIDHTIHQTLAPVVYVTVLVVGFPANCLSLYFGYLQIKARNELGVYLCNLTVADLFYICSLPFWLQYVLQHDNWSHGDLSCQVCGILLYENIYISVGFLCCISVDRYLAVAHPFRFHQFRTLKAAVGVSVVIWAKELLTSIYFLMHEEVIEDENQHRVCFEHYPIQAWQRAINYYRFLVGFLFPICLLLASYQGILRAVRRSHGTQKSRKDQIQRLVLSTVVIFLACFLPYHVLLLVRSVWEASCDFAKGVFNAYHFSLLLTSFNCVADPVLYCFVSETTHRDLARLRGACLAFLTCSRTGRAREAYPLGAPEASGKSGAQGEEPELLTKLHPAFQTPNSPGSGGFPTGRLA

How the values were obtained:
[1] = variants of: B1; assay: cAMP reporter score (Enrich2 score, wild type = 0); higher = more signal; HEK293T, FACS bins
[2] = variants of: B1; assay: surface expression score (Enrich2 score, wild type = 0); higher = more signal; HEK293T, FACS bins

L74Y
cAMP reporter score ([1]; pH 5.5): -0.414
cAMP reporter score ([1]; pH 6): -3.61
cAMP reporter score ([1]; pH 6.5, modulator: ogerin): -0.806
surface expression score [2]: -0.929

L74_P75del
cAMP reporter score ([1]; pH 5.5): -1.15
cAMP reporter score ([1]; pH 6, modulator: ogerin): -0.735
cAMP reporter score ([1]; pH 6.5, modulator: ogerin): -1.04

P75_F76insGSG
cAMP reporter score ([1]; pH 5.5): -1.52
cAMP reporter score ([1]; pH 6): -0.836
cAMP reporter score ([1]; pH 6, modulator: ogerin): -2.01
cAMP reporter score ([1]; pH 6.5, modulator: ogerin): -1.75
surface expression score [2]: -2.44

P75_W77del
cAMP reporter score ([1]; pH 5.5): -0.738
cAMP reporter score ([1]; pH 6): -1.22
cAMP reporter score ([1]; pH 6.5, modulator: ogerin): -0.436

F76_W77insGSG
cAMP reporter score ([1]; pH 5.5): -1.55
cAMP reporter score ([1]; pH 6): -1.72
cAMP reporter score ([1]; pH 6, modulator: ogerin): -1.59
cAMP reporter score ([1]; pH 6.5, modulator: ogerin): -1.64
surface expression score [2]: -1.71

W77_L78del
cAMP reporter score ([1]; pH 5.5): -1.17
cAMP reporter score ([1]; pH 6): -1.45
cAMP reporter score ([1]; pH 6, modulator: ogerin): -1.56
cAMP reporter score ([1]; pH 6.5, modulator: ogerin): -0.587
surface expression score [2]: -0.043

W77_L78insG
cAMP reporter score ([1]; pH 5.5): -1.94
cAMP reporter score ([1]; pH 6): -0.787
cAMP reporter score ([1]; pH 6, modulator: ogerin): -2.13
cAMP reporter score ([1]; pH 6.5, modulator: ogerin): -0.81
surface expression score [2]: -1.26

W77_L78insGS
cAMP reporter score ([1]; pH 5.5): -1.31
cAMP reporter score ([1]; pH 6): -0.534
cAMP reporter score ([1]; pH 6, modulator: ogerin): -2.14
cAMP reporter score ([1]; pH 6.5, modulator: ogerin): -0.904
surface expression score [2]: -2.24

W77_Q79del
cAMP reporter score ([1]; pH 5.5): -0.447
cAMP reporter score ([1]; pH 6): -0.822
cAMP reporter score ([1]; pH 6, modulator: ogerin): -1.42
cAMP reporter score ([1]; pH 6.5, modulator: ogerin): -1.15
surface expression score [2]: 0.266

W77del
cAMP reporter score ([1]; pH 5.5): -1.73
cAMP reporter score ([1]; pH 6.5, modulator: ogerin): -0.991
surface expression score [2]: -1.44

L78_Y80del
cAMP reporter score ([1]; pH 5.5): -1.89
cAMP reporter score ([1]; pH 6): -1.09
cAMP reporter score ([1]; pH 6, modulator: ogerin): -2.05
cAMP reporter score ([1]; pH 6.5, modulator: ogerin): -0.633
surface expression score [2]: -0.343

L78del
cAMP reporter score ([1]; pH 5.5): -1.53
cAMP reporter score ([1]; pH 6): -1.88
cAMP reporter score ([1]; pH 6, modulator: ogerin): -1.85
cAMP reporter score ([1]; pH 6.5, modulator: ogerin): -1.12

Q79A
cAMP reporter score ([1]; pH 5.5): -0.34
cAMP reporter score ([1]; pH 6): -0.673
cAMP reporter score ([1]; pH 6, modulator: ogerin): -0.984
cAMP reporter score ([1]; pH 6.5, modulator: ogerin): -1.27
surface expression score [2]: 0.239

Q79C
cAMP reporter score ([1]; pH 5.5): -0.881
cAMP reporter score ([1]; pH 6): -0.681
cAMP reporter score ([1]; pH 6, modulator: ogerin): -1.27
cAMP reporter score ([1]; pH 6.5, modulator: ogerin): -1.07
surface expression score [2]: -0.497

Q79D
cAMP reporter score ([1]; pH 5.5): 0.72
cAMP reporter score ([1]; pH 6): 0.631
cAMP reporter score ([1]; pH 6, modulator: ogerin): 0.985
cAMP reporter score ([1]; pH 6.5, modulator: ogerin): 0.233
surface expression score [2]: 0.312

Q79E
cAMP reporter score ([1]; pH 5.5): 0.498
cAMP reporter score ([1]; pH 6): 3.83
cAMP reporter score ([1]; pH 6, modulator: ogerin): 1.18
cAMP reporter score ([1]; pH 6.5, modulator: ogerin): 2.72
surface expression score [2]: -0.346

Q79F
cAMP reporter score ([1]; pH 5.5): -1.9
cAMP reporter score ([1]; pH 6): -1.18
cAMP reporter score ([1]; pH 6, modulator: ogerin): -1.52
cAMP reporter score ([1]; pH 6.5, modulator: ogerin): -0.84
surface expression score [2]: 0.748

Q79G
cAMP reporter score ([1]; pH 5.5): -1.11
cAMP reporter score ([1]; pH 6): -0.197
cAMP reporter score ([1]; pH 6, modulator: ogerin): -0.989
cAMP reporter score ([1]; pH 6.5, modulator: ogerin): -1.29
surface expression score [2]: 1.01

Q79H
cAMP reporter score ([1]; pH 5.5): -1.33
cAMP reporter score ([1]; pH 6): -1.43
cAMP reporter score ([1]; pH 6, modulator: ogerin): -1.22
cAMP reporter score ([1]; pH 6.5, modulator: ogerin): -0.889
surface expression score [2]: 0.207

Q79I
cAMP reporter score ([1]; pH 5.5): -1.42
cAMP reporter score ([1]; pH 6): -0.711
cAMP reporter score ([1]; pH 6, modulator: ogerin): -1.21
cAMP reporter score ([1]; pH 6.5, modulator: ogerin): -1.19
surface expression score [2]: -0.232

Q79K
cAMP reporter score ([1]; pH 5.5): -0.93
cAMP reporter score ([1]; pH 6): -0.458
cAMP reporter score ([1]; pH 6, modulator: ogerin): -0.962
cAMP reporter score ([1]; pH 6.5, modulator: ogerin): -0.954
surface expression score [2]: 0.87

Q79L
cAMP reporter score ([1]; pH 5.5): -0.929
cAMP reporter score ([1]; pH 6): -0.402
cAMP reporter score ([1]; pH 6, modulator: ogerin): -1.17
cAMP reporter score ([1]; pH 6.5, modulator: ogerin): -0.802
surface expression score [2]: -0.336

Q79M
cAMP reporter score ([1]; pH 5.5): -1.01
cAMP reporter score ([1]; pH 6): -0.526
cAMP reporter score ([1]; pH 6, modulator: ogerin): -0.905
cAMP reporter score ([1]; pH 6.5, modulator: ogerin): -1.57
surface expression score [2]: -0.389

Q79N
cAMP reporter score ([1]; pH 5.5): 0.343
cAMP reporter score ([1]; pH 6): -0.675
cAMP reporter score ([1]; pH 6, modulator: ogerin): -0.307
cAMP reporter score ([1]; pH 6.5, modulator: ogerin): -0.649
surface expression score [2]: 1.44

Q79R
cAMP reporter score ([1]; pH 5.5): -1.25
cAMP reporter score ([1]; pH 6): -1.1
cAMP reporter score ([1]; pH 6, modulator: ogerin): -1.14
cAMP reporter score ([1]; pH 6.5, modulator: ogerin): -0.953
surface expression score [2]: 0.401

Q79S
cAMP reporter score ([1]; pH 5.5): -0.325
cAMP reporter score ([1]; pH 6): -1.09
cAMP reporter score ([1]; pH 6, modulator: ogerin): -0.687
cAMP reporter score ([1]; pH 6.5, modulator: ogerin): -1.03
surface expression score [2]: 1.31

Q79T
cAMP reporter score ([1]; pH 5.5): -0.206
cAMP reporter score ([1]; pH 6.5, modulator: ogerin): -0.979
surface expression score [2]: 0.769

Q79V
cAMP reporter score ([1]; pH 5.5): -1.19
cAMP reporter score ([1]; pH 6): -1.05
cAMP reporter score ([1]; pH 6, modulator: ogerin): -1.93
cAMP reporter score ([1]; pH 6.5, modulator: ogerin): -0.785
surface expression score [2]: 0.377

Q79W
cAMP reporter score ([1]; pH 5.5): -1.48
cAMP reporter score ([1]; pH 6): -1.05
cAMP reporter score ([1]; pH 6, modulator: ogerin): -1.62
cAMP reporter score ([1]; pH 6.5, modulator: ogerin): -1.12
surface expression score [2]: 0.312

Q79Y
cAMP reporter score ([1]; pH 5.5): -0.706
cAMP reporter score ([1]; pH 6): -0.422
cAMP reporter score ([1]; pH 6, modulator: ogerin): -1.35
cAMP reporter score ([1]; pH 6.5, modulator: ogerin): -1.09
surface expression score [2]: 1.95

Q79_Y80del
cAMP reporter score ([1]; pH 5.5): -0.86
cAMP reporter score ([1]; pH 6): -1.32
cAMP reporter score ([1]; pH 6, modulator: ogerin): -1.09
cAMP reporter score ([1]; pH 6.5, modulator: ogerin): -0.407
surface expression score [2]: 1.36

Q79_Y80insGS
cAMP reporter score ([1]; pH 5.5): -1.36
cAMP reporter score ([1]; pH 6): -1.05
cAMP reporter score ([1]; pH 6.5, modulator: ogerin): 0.329
surface expression score [2]: -0.589
